Laboratory results published in the supplement of paper PMC9433436.
± gives the standard deviation of the averaged measurements. Over roughly 4,100 sequences, “relative kcat/Km (krel) vs genomic leader AAAGAU” has its median near 1.7; the highest 2% begin near 6.5. The list shows a part of the results, in another mix than the full data.

Molecular target: T1, E. coli RNase P holoenzyme (M1 P RNA + rnpA protein) (UniProt P0A7Y8)
T1 sequence: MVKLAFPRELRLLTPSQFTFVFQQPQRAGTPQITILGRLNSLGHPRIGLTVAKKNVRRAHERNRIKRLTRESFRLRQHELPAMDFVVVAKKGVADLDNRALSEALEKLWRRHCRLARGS
Assay: relative kcat/Km (krel) vs genomic leader AAAGAU (relative (reference leader = 1)); higher = faster RNase P cleavage
Protocol: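 HTS-Kin: a pool of ptRNA-Met (21C construct) with all 4096 combinations of 5' leader nucleotides N(-6) to N(-1) was processed in vitro by E. coli RNase P (P RNA + rnpA/C5 protein) under multiple-turnover conditions at 37 C, pH 8, 17.5 mM MgCl2. Residual substrate was Illumina-sequenced at several fractions reacted, and relative kcat/Km (krel) was computed by internal competition kinetics, calibrated to the genomic leader (AAAGAU = 1). The listed hexamer is the varied N(-6)..N(-1) leader (DNA letters), and it sits between a fixed 5' stem-loop flank (GCAUGCACGAAAGUGCGUGCUAUGAA) and the mature tRNA-Met starting GGCUACGUAGCUCAGUUGG. Two technical replicates are averaged.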

[1] = fraction of substrate reacted: ~9-10% (9.79% repeat 1, 9.1% repeat 2)
[2] = fraction of substrate reacted: ~13-16% (15.68% repeat 1, 13.17% repeat 2)
[3] = fraction of substrate reacted: ~26-29% (28.66% repeat 1, 26.4% repeat 2)

Sequence | relative kcat/Km [1] | relative kcat/Km [2] | relative kcat/Km [3]
CGCTAA | 3.07 ± 0.43 | 3.99 ± 1.2 | 5.96 ± 2.3
TCAGTA | 1.24 ± 1.1 | 1.27 ± 0.45 | 1.99 ± 0.47
TGCTAT | 2.93 ± 0.94 | 2.69 ± 0.56 | 3.79 ± 1.5
ATGTAT | 2.32 ± 0.64 | 2.78 ± 0.84 | 4.4 ± 1.9
TCCGTC | 2.65 ± 1.1 | 3.6 ± 0.8 | 5.41 ± 1.8
GCAGCT | – | – | 0.729 ± 0.21
CATCGT | – | – | 1.54 ± 1.2
GCCGGT | – | – | 2.64 ± 2.5
GTCAAC | 4.47 ± 1.7 | 5.05 ± 1.3 | –
TAATAT | 3.78 ± 1.4 | 5.05 ± 0.28 | 7.45 ± 3.4
CCTAGC | 1.61 ± 0.43 | 2.18 ± 0.98 | 2.91 ± 1
CATGTC | 1.46 ± 0.49 | 1.67 ± 0.4 | 1.74 ± 0.59
CCCCGT | – | – | 1.1 ± 0.098
AAACGC | – | 1.77 ± 0.37 | 1.66 ± 0.27
ACTACA | 1.5 ± 0.072 | 1.47 ± 0.021 | 1.67 ± 0.56
AGGTAA | 1.01 ± 0.44 | 1.09 ± 1 | 1.2 ± 0.29
GTTCGC | 3.05 ± 0.95 | 3.41 ± 0.8 | 4.63 ± 1.6
CGACGA | 2.51 ± 0.82 | 2.93 ± 0.75 | 4.27 ± 1.3
GCGTTC | 1.8 ± 0.31 | 1.35 ± 0.18 | 2.35 ± 0.77
CAGACA | 2.14 ± 0.6 | 1.9 ± 0.48 | 2.14 ± 0.51
CAGCAG | 1.82 ± 1.6 | – | 2.17 ± 0.34
AGGCAT | 1.34 ± 0.18 | 2.016 ± 0.015 | 2.37 ± 0.98
ACCCAT | 2.43 ± 0.83 | 2.95 ± 0.91 | 5.63 ± 2.4
TGTATA | 2.17 ± 0.21 | 2.75 ± 0.05 | 4.46 ± 1.7
AACCTT | 2.69 ± 0.62 | 3.09 ± 0.28 | 3.96 ± 1.6

Sequence | relative kcat/Km [1] | relative kcat/Km [2] | relative kcat/Km [3]
AAGAGC | 2.01 ± 1.4 | 1.51 ± 1 | 1.44 ± 0.59
CGGAGT | 0.901 ± 0.67 | – | 0.911 ± 0.33
ATACAA | 1.75 ± 1.1 | 1.77 ± 0.56 | 2.89 ± 0.85
CGCCAC | 2.83 ± 1 | 3.31 ± 0.42 | 5.23 ± 2
GGACGA | 2.09 ± 0.84 | 1.76 ± 0.19 | 3.1 ± 0.59
AGCCAG | – | – | 2.09 ± 0.17
CCTAAT | 2.2 ± 0.41 | 3 ± 1.2 | 3.71 ± 1.5
TTTCAA | 2.81 ± 1.9 | 2.95 ± 0.37 | 4.9 ± 2.3
GTGCCA | 0.534 ± 0.045 | – | –
GTTTCA | 2.031 ± 0.017 | 2.33 ± 0.61 | 3.07 ± 1.4
ACATAC | 3.09 ± 1.3 | 3.78 ± 0.48 | 6.1 ± 2.7
AGCTCC | 2.59 ± 0.77 | 2.42 ± 0.76 | 3.39 ± 0.93
TTAGAT | 1.88 ± 0.57 | 2.14 ± 0.17 | 2.8 ± 1.2
TTCTTG | 1.95 ± 1.7 | 1.96 ± 0.17 | 4 ± 1.1
CGCGGG | 0.135 ± 0.028 | – | 0.258 ± 0.092
AAATGA | 1.72 ± 0.08 | 2.3 ± 0.48 | 3.26 ± 0.6
GCATGG | – | – | 0.667 ± 0.047
AGGGCG | – | – | 0.407 ± 0.03
GACTTA | 3.03 ± 0.62 | 4.15 ± 0.96 | 5.78 ± 2.2
ATCATC | 3.27 ± 0.66 | 4.72 ± 0.78 | 6.25 ± 2.5
CTATAA | 3.33 ± 1.3 | 3.72 ± 0.51 | 4.92 ± 1.3
CCTCAT | 3.36 ± 1.2 | 3.53 ± 1.4 | 4.91 ± 1.8
ACTTGA | 1.99 ± 0.17 | 3.34 ± 0.94 | 4.47 ± 1.9
GGAGTT | 1.4 ± 0.32 | 1.48 ± 0.098 | 1.69 ± 1.1
ATGAGC | 1.07 ± 0.46 | 0.565 ± 0.33 | 0.952 ± 0.33

Sequence | relative kcat/Km [1] | relative kcat/Km [2] | relative kcat/Km [3]
TCATCC | 3.59 ± 1.3 | 3.87 ± 1.3 | 5.31 ± 2.2
CTAGAA | 1.96 ± 0.038 | 2.24 ± 0.15 | 3.47 ± 0.95
TCATAG | 1.97 ± 1.4 | 1.66 ± 0.34 | 3.6 ± 0.47
GCGATT | 0.996 ± 0.34 | 1.5 ± 0.55 | 1.68 ± 0.66
CTCTCC | 3.04 ± 0.91 | 4.91 ± 0.6 | 6.17 ± 2.2
ATCGGA | 0.168 ± 0.15 | 0.728 ± 0.66 | 1.28 ± 1.1
CTATTA | 2.6 ± 0.88 | 2.36 ± 0.19 | 3.23 ± 0.97
ATTATC | 2.48 ± 1.3 | 2.23 ± 0.16 | 3.06 ± 1.4
TAGTTT | 2.38 ± 0.77 | 3.06 ± 0.42 | 4.05 ± 2.3
TTCGTG | – | 0.287 ± 0.27 | 2.01 ± 0.17
ACCTTC | 2.69 ± 1.4 | 2.74 ± 0.55 | 4.18 ± 1.4
AAGCCC | 0.958 ± 0.2 | 0.906 ± 0.67 | 0.988 ± 0.31
TTAACT | 1.58 ± 0.78 | 1.54 ± 0.2 | 2.03 ± 0.47
CGTCCT | 2.14 ± 0.34 | 2.06 ± 0.17 | 3 ± 1.2
CGAAGC | 2 ± 1.9 | 1.89 ± 0.033 | 2.25 ± 0.35
GGAAGA | 2.26 ± 0.31 | 2.24 ± 0.41 | 3.83 ± 0.61
CTATTG | – | – | 0.916 ± 0.74
TCGAGC | 2.77 ± 0.86 | 2.65 ± 1.1 | 2.82 ± 0.59
GGTTAG | – | – | 2.2 ± 0.25
GAGCCA | 2.01 ± 1.3 | 0.881 ± 0.61 | 1.7 ± 0.28
GCATCC | 1.35 ± 0.49 | 1.42 ± 0.14 | 2.87 ± 0.81
CAACGC | 1.85 ± 0.72 | 1.39 ± 0.028 | 2.4 ± 0.8
TGACCG | – | – | 0.911 ± 0.05
GTGCCT | 1.49 ± 0.64 | 0.349 ± 0.057 | 1.05 ± 0.21
GCGCGA | 1.02 ± 0.98 | 0.82 ± 0.55 | 1.61 ± 0.45

Sequence | relative kcat/Km [1] | relative kcat/Km [2] | relative kcat/Km [3]
TCTGAA | 1.92 ± 0.47 | 2.38 ± 0.57 | 2.97 ± 1.1
TACGGG | – | – | 1.33 ± 1.2
TACGGA | 0.765 ± 0.61 | 1.48 ± 1.2 | 1.64 ± 1.4
TCGGAC | 2.06 ± 1.7 | 1.47 ± 0.48 | 1.85 ± 0.66
GTAACC | 2.15 ± 1.4 | 1.07 ± 0.27 | 1.79 ± 0.34
AGCGGC | 0.718 ± 0.35 | 1.28 ± 1.2 | 1.33 ± 1.2
GCATAC | 1.55 ± 0.17 | 2.46 ± 0.94 | 4.24 ± 1.6
GATGTT | 0.712 ± 0.68 | – | 1.4 ± 0.85
CAGTTC | 2.07 ± 1.6 | 2.19 ± 0.32 | 2.95 ± 0.31
CGAGAA | 2.31 ± 0.19 | 2.21 ± 1.4 | 3.15 ± 1.6
CCCTGC | 2.87 ± 1.4 | 3.39 ± 0.2 | 5.06 ± 1.6
GGGCCA | 1.48 ± 0.33 | 0.452 ± 0.2 | 1.04 ± 0.54
GCGACC | 1.21 ± 0.73 | 0.862 ± 0.33 | 1.13 ± 0.19
AAGCTT | 1.46 ± 0.64 | 1.37 ± 0.038 | 1.61 ± 0.014
CCCCCT | 2.27 ± 1.8 | 1.25 ± 0.29 | 1.95 ± 0.15
CGCCGG | 0.48 ± 0.17 | – | 1.15 ± 0.32
CGGGAA | 1.33 ± 0.59 | 1.32 ± 0.29 | 1.29 ± 0.09
TATAGG | – | – | 1.41 ± 0.5
GCTAGC | 1.3 ± 0.3 | 1.57 ± 0.38 | 1.92 ± 0.22
CTCGAG | 1.8 ± 0.06 | 1.72 ± 1.4 | 3.97 ± 1.3
ATCTGC | 3.18 ± 0.4 | 3.94 ± 1.9 | 6.13 ± 3
TCGATC | 2.27 ± 0.09 | 2.62 ± 1.1 | 3.96 ± 1.3
GGTCGA | 1.03 ± 0.9 | 2.26 ± 0.98 | 3.2 ± 1.3
AGACTC | 2.45 ± 1.3 | 2.19 ± 0.25 | 2.4 ± 0.29
ACCGAG | 2.58 ± 2.5 | 0.833 ± 0.22 | 2.44 ± 0.21
